# Results published in the RNAGym collection of RNA variant scans (doi:10.1093/nar/gkz1192).
# The source gives no read counts; variants with many changes may rest on few reads.
# B1: CPEB3 Ribozyme (parent)
# chain: UAACAGGGGGCCACAGCAGAAGCGUUCACGUCGCAGCCCCUGUCAGAUUCUGGUGAAUCUGCGAAUUCUGCUGUAUAUCUC
# Variants of: B1
# Test: self-cleavage, relative activity (ratio to wild type); higher = more cleavage; in vitro, sequencing
# Summary of the method: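 Relative activity was defined as the cleaved/total read fraction for a variant divided by the same fraction for the unmutated ribozyme. CPEB3 self-cleaving ribozyme libraries were made by rounds of error-prone PCR, barcoded, and transcribed in vitro with T7 RNA polymerase for 5 hours at 37°C, and cleavage ran through transcription plus a 15 min DNase I step before EDTA. Illumina sequencing of template-switched reverse transcripts gave the reads, and DNA sequencing mapped the barcodes. Averages come from three batches, using variants with at least 5 reads.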
row,Variant,self-cleavage
1,A3G G9U C40U U54A A56G U69C,0.21
2,A3G U54C U60C,0.48
3,A3G U54C U60A A64U,0.19
4,A3G A35U U74C,0.98
5,A3G C14A A64U U78C,0.54
6,A3G U76G A77G,0.62
7,A3G C11G A35G U49A U60A,0.3
8,A3G G16C G63C,0.41
9,A3G U25C U48G,0.62
10,A3G C71U G73A,1.36
11,A3G U31C U58C,0.47
12,A3G U31C U58A,0.45
13,A3G U31C U51A,0.86
14,A3G A57U A64G U78A,0.47
15,A3U A5U C62A A64U,0.36
16,A3U C12G U49C G52A U66C,0.25
17,A3G U26C G55C,0.47
18,A3G U41G U49C U67C,0.24
19,A3G U25C U48C U51A,0.04
20,A3U A28C A35G U51A G73A U78C,1.32
21,A3G G7C U31C A35U U76A A77U,0.07

row,Variant,self-cleavage
1,A3G C23G U41A U43C,0.41
2,A3U A20G A45G A47G U51C U69C,0.21
3,A3G G61C U69C U74C A75G,0.25
4,A3G U25A C40A U51C U69C,0.1
5,A3G U25A U67C,0.32
6,A3G U31C G33A U60C U74G,0.07
7,A3G C12A U80C,0.9
8,A3G U25G A57G U72A U76A,0.06
9,A3U A13U A47G U74G U78A,1.24
10,A3G G22C G52C,0.34
11,A3G G16C A28G U48C,0.37
12,A3G G24A A65G,0.29
13,A3G U31C U43C G46A,0.4
14,A3G G6A A35G U78C,0.59
15,A3G U31C U54C,0.9
16,A3U C11A A15U A18U C62G U66C U67C,0.04
17,A3U A20U G24A A28U U51G A64G,0.07
18,A3G G8C A28U U78A,0.08
19,A3G G10A U26C U51A U60C,0.25
20,A3G U26C A28G A45G U60C U78A,0.79
21,A3G U25C U41C U74C U78C,0.76

row,Variant,self-cleavage
1,A3U C11A U31A A45U U72C,0.09
2,A3U A20G A35U,0.33
3,A3U A18G A21G A28G,0.07
4,A3G U26C A35U A64G C68A U69G,0.3
5,A3G G8U A21G U41A A75U U80C,0.06
6,A3G U25C U54A U72A U80C,0.15
7,A3G G7C C23G U25C U54G A77G U80G,0.05
8,A3G U26A A28G,0.42
9,A3U A5G U72C C81A,0.56
10,A3U A13U C32U A64U U80C,0.11
11,A3G A35U U66C,0.26
12,A3U A21U U41A U54C A57U A64G U69C,0.1
13,A3G C39G U58G,0.14
14,A3U A5G C40U U58A U60A,0.34
15,A3U C11G U25C,0.07
16,A3G G10C A28G U41A G55U U58C U60A,0.08
17,A3U A28G G46U U54G,0.07
18,A3G A57G U72A,1.02
19,A3G C11A A18G U69C,0.17
20,A3G C38A A77G,0.4
21,A3U A13U U26C U78C,0.96

row,Variant,self-cleavage
1,A3G C38U U72A,0.5
2,A3G G24U U31A U43C A45G U49C U54C,0.13
3,A3G U48C C81U,0.7
4,A3G G8A U60A,0.37
5,A3U C12A U51C A56U A65U,0.26
6,A3U A15G A45C U80C,0.38
7,A3G A45G A64G,0.77
8,A3G G33A C71A,0.2
9,A3G U41C U51G,0.99
10,A3G U31A C38U U69G,0.08
11,A3G G8A U25C G36U U58A C62U,0.06
12,A3G C39U U60C,0.22
13,A3U A15U A35U A56U U60C A64U C81U,0.09
14,A3G U72A A77G,0.8
15,A3G A57U A75U U80A,1.16
16,A3G G6U A56G,0.24
17,A3G A56G U58C A75G,0.4
18,A3G A64U U76C,0.32
19,A3G G7U A64G U80A,0.47
20,A3G U26C U54C,0.42
21,A3U C12U U25C U58A A64G A75G,0.06
